Reference: ChEMBL document CHEMBL4888484, “Replenishing the malaria drug discovery pipeline: Screening and hit evaluation of the MMV Hit Generation Library 1 (HGL1) against asexual blood stage Plasmodium falciparum ,using a nano luciferase reporter read-out” (2022)
The campaign covered roughly 150,000 compounds. About 540 (0.36%) showed an effect of 50% or more. The list shows a part of the results.

Each compound was assayed on Plasmodium falciparum (assay: Primary screen in NF54 nanoGlo assay, in single point, at 2uM, 72h; a lower Z score goes with more inhibition). Conditions: timepoint 72 hour.
Format: functional, Erythrocyte

| Structure (SMILES) | % Inhibition [%] | Z score |
| --- | --- | --- |
| O=C(CCC1CCCC1)NCC(=O)N1CC[C@H](N2CCCC2=O)C1 | 2 | -0.47 |
| Cc1cc(C(=O)N[C@H]2CCN(Cc3cccc4nonc34)C[C@@H]2O)no1 | 4 | -0.52 |
| CC(C)(C)c1noc(OCc2cccc(C#N)c2)n1 | 36 | -1.51 |
| C[C@@H](CNC(=O)CCc1ncccn1)C1CCCCC1 | 0 | 0.03 |
| O=C(Cc1csc(-c2ccoc2)n1)N1CCC[C@H]1CO | -9 | 1.3 |
| COc1ccccc1CC(C)(C)C(=O)NS(=O)(=O)c1cccnc1 | -5 | 0.59 |
| Cc1nnc(CNc2ccc(Oc3nc4ccccc4s3)c(Cl)c2)s1 | -6 | 1.07 |
| Cc1ccccc1CNC(=O)CN(C(C)C)C1CCOCC1 | 42 | -2.56 |
| CC[C@H](C)N(CC(=O)O)C(=O)c1ccc(C)cc1F | -4 | 0.84 |
| Cc1ccc(S(=O)(=O)N2CCC[C@H](C(=O)NC3CC3)C2)cc1F | 1 | -0.17 |
| COc1ccc(-n2c(-c3ccccc3)cc(C(=O)N3CCN(S(=O)(=O)c4ccc(C(C)(C)C)cc4)CC3)c2C)cc1OC | 4 | -0.52 |
| O=C(N[C@@H]1CN(Cc2ccccc2C(F)(F)F)C[C@H]1CO)C1CCC1 | 0 | 0.06 |
| Cc1cccc(C(=O)NCc2nc([C@H]3CC(=O)N(Cc4ccc(F)cc4)C3)no2)c1 | -12 | 1.32 |
| O=C1CN(C(=O)c2cnn(Cc3ccccc3)c2)c2ccncc2N1 | 32 | -3.63 |
| CN(CCNS(N)(=O)=O)Cc1ccc(F)cc1 | -4 | 0.59 |
| CC(O)CN(C)C(=O)C1N(C(=O)OC(C)(C)C)CC12CCOCC2 (stereo not drawn) | 1 | -0.18 |
| CC(C)n1ncnc1-c1ccc2c(c1)OCCO2 | -19 | 2.04 |
| O=C(O)c1c2c(nc3ccccc13)C(=Cc1cccc(C=C3CCCc4c3nc3ccccc3c4C(=O)O)c1)CCC2 | 2 | -0.26 |
| CN(CC(=O)NC(C)(C)C)C1CCCC1S(C)(=O)=O (stereo not drawn) | -6 | 1.05 |
| COCCCNC(=O)[C@@H]1CC2(CCN(C(=O)c3cccn3C)CC2)C(=O)N1C | -10 | 1.38 |
| Cc1cc(NC(=O)C(C)(C)NC(=O)c2cccs2)cc2sc(N)nc12 | -7 | 0.8 |
| CC(=O)N1CC(NC(=O)c2ccc(S(C)(=O)=O)cc2)C1 | -18 | 2.19 |
| O=C(Cn1cnnn1)Nc1cc(OCc2ccccc2)ncn1 | -12 | 2.19 |
| Cc1cc(O)c(C(=O)O)c(/C=C/c2cccc(O)c2)n1 | 2 | -0.31 |
| O=C(CCc1cccc(F)c1F)NC1(C(=O)O)CCC1 | -8 | 1.41 |
| O=S(=O)(NCCCl)Nc1ccc(Br)cc1.O=S1(=O)NCCN1c1ccc(Br)cc1 | 3 | -0.5 |
| CCc1nnc(CNC(=O)Nc2ccc3c(c2)cc(C)n3CC)o1 | -6 | 0.61 |

| Structure (SMILES) | % Inhibition [%] | Z score |
| --- | --- | --- |
| O=C(NCc1ccc(Cl)cc1)c1cccc(NC(=O)c2nnc(COc3ccc(F)cc3)s2)c1 | -9 | 0.94 |
| COc1cc(C(=O)N(C)c2ccc(N(C)C)cc2)cc(OC)c1OC | -6 | 0.95 |
| COc1ccccc1CNC(=O)Cn1cc(-c2ccccc2)c2ncnc(N3CCOCC3)c21 | 11 | -1.6 |
| CC(C)(C)N1C[C@@H](C(=O)Nc2n[nH]c(Cc3ccc(F)cc3)n2)CC1=O | -6 | 0.9 |
| CCCc1noc(-c2cccn3c(CNC(=O)c4ccc(C)cc4)nnc23)n1 | -1 | 0.13 |
| CCc1ncc(CN(C)C[C@H]2CCN(c3ccccc3)C2)cn1 | -8 | 1.51 |
| COc1cc(OC)cc(C(=O)N2CCC3(CC2)NC(=O)c2ccccc2N3C)c1 | -8 | 0.98 |
| CC1CCCCC1CC(=O)NCC(O)c1cncs1 (stereo not drawn) | -2 | 0.3 |
| C#CCN1CCN(CCCS(=O)(=O)c2cccc(C)c2)CC1 | -5 | 0.54 |
| CN(Cc1ccon1)C(=O)c1csc2nc(-c3ccccc3Cl)cn12 | -4 | 0.73 |
| Cc1ccccc1Cn1cccc1CNC(=O)NC1CCCCC1 | 14 | -2.23 |
| N#Cc1cccc(CN2CCN(CCO)[C@@H]3CS(=O)(=O)C[C@@H]32)c1 | 2 | -0.43 |
| O=C1[C@@H]2C(c3ccccc3Cl)=NO[C@@H]2C(=O)N1c1ccc2ccccc2c1 | -9 | 1.2 |
| Cc1nc(CC(=O)N2CCN(c3ccnc4nncn34)CC2)cs1 | 0 | 0.04 |
| COC(=O)[C@H]1CN(c2cnc3ccccc3n2)C[C@@H]1c1cncn1C | -9 | 1.22 |
| NS(=O)(=O)c1ccc(NCc2ccncc2)c(C(F)(F)F)c1 | 1 | -0.19 |
| CCOCCCC(=O)Nc1cc(CC)n[nH]1 | -22 | 4.73 |
| Cc1ccc(-n2nnnc2C2(NC(=O)C(F)(F)F)CCCC2)cc1 | -2 | 0.24 |
| CCc1nc(CN2CCC3CCC(C2)N3C(C)C)cs1 (stereo not drawn) | -9 | 1.17 |
| CC(C)c1nc(CN(C)Cc2nc(-c3ccccn3)no2)co1 | -20 | 2.13 |
| COCCCN(C(=O)N[C@@H](C)c1ccccc1)C1CCN(C)CC1 | -23 | 2.2 |
| CCN(CCOc1ccccc1)Cc1ccn(CC)n1 | -3 | 0.36 |
| Cc1noc(C(=O)N2CCN(C(=O)c3ccco3)CC2)c1Cl | 3 | -0.51 |
| COc1ccc([C@@H]2CCCN2C(=O)c2cnns2)cc1OC | -11 | 1 |
| O=C(Cc1c(F)cccc1Cl)N1CC(OCC(F)(F)F)C1 | -13 | 2.28 |
| CC(C)N(CCS(C)(=O)=O)Cc1ccc(Cl)cc1F | -5 | 0.83 |
| CCC(=O)NCC(=O)Nc1cc(CCc2ccccc2)ccn1 | 0 | 0.01 |
